# From the supplement of paper PMC8728848
# The list shows a part of the results.
# B1: Di AAL2 (Agrocybe aegerita) (protein)
# chain: MTSNVITQDLPIPVASRGFADIVGFGLDGVVIGRNAVNLQPFLAVKNFAQNAGGWLTTKHVRLIADTTGTGKGDIVGFGNAGVYVSVNNGKNTFADPPKMVIANFGYDAGGWRVEKHLRYLADIRKIGRADIIGFGEKGVLVSRNNGGLNFGPATLVLKDFGYDAGGWRLDRHLRFLADVTGNGHLDIVGFGDKHVFISRNNGDGTFAPAKSVIDNFCIDAGGWKIGDHPRFVADLTGDGTADIIGCGKAGCWVALNNGGGVFGQVKLVINDFGTDKGWQAAKHPRFIADLTGNGRGDVVGFGNAGVYVALNNGDGTFQSAKLVLKDFGVQQGWTVSKHRRFVVDLTGDGCADIIGFGEKETLVSYNDGKGNFGPVKALTNDFSFSGGKWAPETTVCWMANLDSSRHPAPAPMTSNVITQDLPIPVASRGFADIVGFGLDGVVIGRNAVNLQPFLAVKNFAQNAGGWLTTKHVRLIADTTGTGKGDIVGFGNAGVYVSVNNGKNTFADPPKMVIANFGYDAGGWRVEKHLRYLADIRKIGRADIIGFGEKGVLVSRNNGGLNFGPATLVLKDFGYDAGGWRLDRHLRFLADVTGNGHLDIVGFGDKHVFISRNNGDGTFAPAKSVIDNFCIDAGGWKIGDHPRFVADLTGDGTADIIGCGKAGCWVALNNGGGVFGQVKLVINDFGTDKGWQAAKHPRFIADLTGNGRGDVVGFGNAGVYVALNNGDGTFQSAKLVLKDFGVQQGWTVSKHRRFVVDLTGDGCADIIGFGEKETLVSYNDGKGNFGPVKALTNDFSFSGGKWAPETTVCWMANLDSSRH
# What was measured:
# Assay in all cases: glycan array binding signal (z-score within array); higher = stronger binding
# Settings in all cases: glycan notation: IUPAC condensed, linker removed
# [1] = molecular target: Neu5Ac(a2-3)Gal(b1-3)GlcNAc(b1-6)GalNAc
# Summary of the method: (§1)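 Glycan array binding is given as a within-array Z-score, which can be read as non-binding when negative. The arrays, 3228 of them, came from the Consortium for Functional Glycomics database and were retained only where the protein sequence was available. Z-scores were averaged across arrays of the same protein sequence at different concentrations or buffers and across linkers.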
# [2] = molecular target: Neu5Ac(a2-3)Gal(b1-3)GlcNAc6S
# Summary of the method: as §1
# [3] = molecular target: Neu5Ac(a2-3)Gal(b1-3)[Fuc(a1-4)]GlcNAc
# Summary of the method: as §1
# [4] = molecular target: Neu5Ac(a2-3)Gal(b1-3)[Fuc(a1-4)]GlcNAc(b1-3)Gal(b1-3)[Fuc(a1-4)]GlcNAc
# Summary of the method: as §1
# [5] = molecular target: Neu5Ac(a2-3)Gal(b1-3)[Fuc(a1-4)]GlcNAc(b1-3)Gal(b1-4)[Fuc(a1-3)]GlcNAc
# Summary of the method: as §1
# [6] = molecular target: Neu5Ac(a2-3)Gal(b1-3)[GlcNAc(b1-6)]GalNAc
# Summary of the method: as §1
# [7] = molecular target: Neu5Ac(a2-3)Gal(b1-3)[Neu5Ac(a2-6)]GalNAc
# Summary of the method: as §1
# [8] = molecular target: Neu5Ac(a2-3)Gal(b1-3)[Neu5Ac(a2-6)]GlcNAc(b1-3)[Fuc(a1-3)[Gal(b1-4)]GlcNAc(b1-6)]Gal(b1-4)Glc
# Summary of the method: as §1
# [9] = molecular target: Neu5Ac(a2-3)Gal(b1-3)]Neu5Ac(a2-3)Gal(b1-4)]GlcNAc
# Summary of the method: as §1
# Neu5Ac(a2-3)Gal(b1-4)Glc = molecular target: Neu5Ac(a2-3)Gal(b1-4)Glc
# Summary of the method: as §1
# [10] = molecular target: Neu5Ac(a2-3)Gal(b1-4)GlcNAc
# Summary of the method: as §1
# [11] = molecular target: Neu5Ac(a2-3)Gal(b1-4)GlcNAc(b1-2)Man
# Summary of the method: as §1
# [12] = molecular target: Neu5Ac(a2-3)Gal(b1-4)GlcNAc(b1-2)Man(a1-3)[GlcNAc(b1-4)][Neu5Ac(a2-3)Gal(b1-4)GlcNAc(b1-2)Man(a1-6)]Man(b1-4)GlcNAc(b1-4)GlcNAc
# Summary of the method: as §1
# [13] = molecular target: Neu5Ac(a2-3)Gal(b1-4)GlcNAc(b1-2)Man(a1-3)[Neu5Ac(a2-3)Gal(b1-4)GlcNAc(b1-2)Man(a1-6)]Man(b1-4)GlcNAc(b1-4)GlcNAc
# Summary of the method: as §1
# [14] = molecular target: Neu5Ac(a2-3)Gal(b1-4)GlcNAc(b1-2)Man(a1-3)[Neu5Ac(a2-3)Gal(b1-4)GlcNAc(b1-2)Man(a1-6)]Man(b1-4)GlcNAc(b1-4)[Fuc(a1-6)]GlcNAc
# Summary of the method: as §1
# [15] = molecular target: Neu5Ac(a2-3)Gal(b1-4)GlcNAc(b1-2)Man(a1-3)[Neu5Ac(a2-6)Gal(b1-4)GlcNAc(b1-2)Man(a1-6)]Man(b1-4)GlcNAc(b1-4)GlcNAc
# Summary of the method: as §1
# [16] = molecular target: Neu5Ac(a2-3)Gal(b1-4)GlcNAc(b1-2)[Neu5Ac(a2-3)Gal(b1-4)GlcNAc(b1-4)]Man(a1-3)[GlcNAc(b1-4)][Neu5Ac(a2-3)Gal(b1-4)GlcNAc(b1-2)[Neu5Ac(a2-3)Gal(b1-4)GlcNAc(b1-6)]Man(a1-6)]Man(b1-4)GlcNAc(b1-4)GlcNAc
# Summary of the method: as §1
# [17] = molecular target: Neu5Ac(a2-3)Gal(b1-4)GlcNAc(b1-2)[Neu5Ac(a2-3)Gal(b1-4)GlcNAc(b1-4)]Man(a1-3)[GlcNAc(b1-4)][Neu5Ac(a2-3)Gal(b1-4)GlcNAc(b1-4)Man(a1-6)]Man(b1-4)GlcNAc(b1-4)GlcNAc
# Summary of the method: as §1
# [18] = molecular target: Neu5Ac(a2-3)Gal(b1-4)GlcNAc(b1-2)[Neu5Ac(a2-3)Gal(b1-4)GlcNAc(b1-6)]Man(a1-6)[Neu5Ac(a2-3)Gal(b1-4)GlcNAc(b1-2)Man(a1-3)][GlcNAc(b1-4)]Man(b1-4)GlcNAc(b1-4)GlcNAc
# Summary of the method: as §1
# [19] = molecular target: Neu5Ac(a2-3)Gal(b1-4)GlcNAc(b1-3)Gal
# Summary of the method: as §1
# [20] = molecular target: Neu5Ac(a2-3)Gal(b1-4)GlcNAc(b1-3)Gal(b1-3)GlcNAc
# Summary of the method: as §1
# [21] = molecular target: Neu5Ac(a2-3)Gal(b1-4)GlcNAc(b1-3)Gal(b1-4)GlcNAc
# Summary of the method: as §1
# [22] = molecular target: Neu5Ac(a2-3)Gal(b1-4)GlcNAc(b1-3)Gal(b1-4)GlcNAc(b1-2)Man(a1-3)[Neu5Ac(a2-3)Gal(b1-4)GlcNAc(b1-3)Gal(b1-4)GlcNAc(b1-2)Man(a1-6)]Man(b1-4)GlcNAc(b1-4)GlcNAc
# Summary of the method: as §1
# [23] = molecular target: Neu5Ac(a2-3)Gal(b1-4)GlcNAc(b1-3)Gal(b1-4)GlcNAc(b1-3)Gal(b1-4)GlcNAc
# Summary of the method: as §1
# [24] = molecular target: Neu5Ac(a2-3)Gal(b1-4)GlcNAc(b1-3)Gal(b1-4)GlcNAc(b1-3)Gal(b1-4)GlcNAc(b1-2)Man(a1-3)[Neu5Ac(a2-3)Gal(b1-4)GlcNAc(b1-3)Gal(b1-4)GlcNAc(b1-3)Gal(b1-4)GlcNAc(b1-2)Man(a1-6)]GalNAc
# Summary of the method: as §1
# [25] = molecular target: Neu5Ac(a2-3)Gal(b1-4)GlcNAc(b1-3)Gal(b1-4)GlcNAc(b1-3)GalNAc
# Summary of the method: as §1
# [26] = molecular target: Neu5Ac(a2-3)Gal(b1-4)GlcNAc(b1-3)Gal(b1-4)GlcNAc(b1-3)[Neu5Ac(a2-3)Gal(b1-4)GlcNAc(b1-3)Gal(b1-4)GlcNAc(b1-6)]GalNAc
# Summary of the method: as §1
# [27] = molecular target: Neu5Ac(a2-3)Gal(b1-4)GlcNAc(b1-3)Gal(b1-4)GlcNAc(b1-6)[Gal(b1-3)]GalNAc
# Summary of the method: as §1
# [28] = molecular target: Neu5Ac(a2-3)Gal(b1-4)GlcNAc(b1-3)Gal(b1-4)[Fuc(a1-3)]GlcNAc
# Summary of the method: as §1
# [29] = molecular target: Neu5Ac(a2-3)Gal(b1-4)GlcNAc(b1-3)GalNAc
# Summary of the method: as §1
binder,measurement,setting,value
B1,glycan array binding signal (z-score),[1],-0.299
same,glycan array binding signal (z-score),[2],-0.3
same,glycan array binding signal (z-score),[3],-0.104
same,glycan array binding signal (z-score),[4],-0.117
same,glycan array binding signal (z-score),[5],-0.082
same,glycan array binding signal (z-score),[6],0.175
same,glycan array binding signal (z-score),[7],-0.105
same,glycan array binding signal (z-score),[8],-0.313
same,glycan array binding signal (z-score),[9],0.046
same,glycan array binding signal (z-score),Neu5Ac(a2-3)Gal(b1-4)Glc,-0.249
same,glycan array binding signal (z-score),[10],-0.17
same,glycan array binding signal (z-score),[11],-0.284
same,glycan array binding signal (z-score),[12],-0.302
same,glycan array binding signal (z-score),[13],-0.291
same,glycan array binding signal (z-score),[14],0.317
same,glycan array binding signal (z-score),[15],-0.26
same,glycan array binding signal (z-score),[16],-0.279
same,glycan array binding signal (z-score),[17],-0.257
same,glycan array binding signal (z-score),[18],-0.313
same,glycan array binding signal (z-score),[19],-0.142
same,glycan array binding signal (z-score),[20],-0.262
same,glycan array binding signal (z-score),[21],-0.198
same,glycan array binding signal (z-score),[22],-0.275
same,glycan array binding signal (z-score),[23],0.016
same,glycan array binding signal (z-score),[24],-0.247
same,glycan array binding signal (z-score),[25],0.279
same,glycan array binding signal (z-score),[26],-0.269
same,glycan array binding signal (z-score),[27],-0.307
same,glycan array binding signal (z-score),[28],-0.132
same,glycan array binding signal (z-score),[29],-0.241
